These results are taken from patent publication US20230227453A1 (priority 2020, published 2023).

For this assay, the system named is Male Sprague Dawley rats. In words: Forced Swim Test (FST) (Procedure B). As to conditions: second swim test ~24 hours after injection, 3 mg/kg or less, vs vehicle. Further details: key: A: Statistically significant mean decrease in immobility compared to vehicle control at 3 mg/kg or less; B: No statistically significant mean decrease in immobility compared to vehicle control at 3 mg/kg or less. How it is done: Forced Swim Test (FST) (Procedure B). All FST experiments were conducted by Psychogenics Inc, Paramus, N.J. Male Sprague Dawley rats from Envigo (Indianapolis, Ind.) were obtained and housed 3 rats per cage following an IACUC approved protocol. All experiments were carried out at ambient temperatures (20 and 23° C.) under artificial lighting during the light-on part of the light/dark cycle in a Forced Swim chamber constructed of clear acrylic (height=40 cm; diameter=20.3 cm). Only one rat was placed in the swim chamber at a time for each swim test. The water was changed and the chamber cleaned between each animal. All rats were exposed to two swim sessions. The water depth was 16 cm in the first swim session and 30 cm in the second swim session, and the water temperature was maintained at 23±1° C. for all swim sessions. During the FST, animals undergo a 15 min swim session (pre-swim) lasted for 15 minutes, dried with paper towels, and returned to the home cage. […] The second swim test was video recorded for scoring. Body weights were measured on both days. Scoring of the second swim test was performed by trained technicians using a time sampling technique in which the animal in the video recorded test was viewed every 5 seconds and the behavior seen is noted. […]

As to `COc1ccc2c3c([nH]c2n1)CCN(C)CC3` [Example 1, 2-methoxy-7-methyl-5,6,7,8,9,10-hexahydropyrido[3′,2′:4,5]pyrrolo[2,3-d]azepine], the Decrease in immobilty entry is listed as “A”.
